The list shows a part of the results. At the low end of the ranking the order means little.

Among the data in publication PMC10668032 are binding signal values, retold here.

The target in this experiment is SIX1 homeodomain (reference allele) (UniProt Q15475). Put plainly: universal protein binding microarray. The following applies: Universal all-10-mer PBM (8x60K, AMADID 030236), 300 nM GST-tagged protein, Alexa Fluor 488 anti-GST; buffer, salt, pH and temperature not stated; high values mean tight binding; most listed sequences are background and not binding sites; double strand, one strand shown.
For the sequence ATAGTATA, the binding signal was 0.29 E-score.
In the case of AAAAGCAG it was -0.317 E-score.
The value for ACGACACC was 0.432 E-score.
Regarding CCCTTTAC, the binding signal was -0.00779 E-score.
With AAATCTCC, the binding signal was -0.113 E-score.
For the sequence CAGCGGAG, the binding signal was 0.0225 E-score.
In the case of AGGACGTC it was -0.0603 E-score; in that of AACTGCCT, -0.0645 E-score.
For GTTGAGGA, the binding signal was -0.0318 E-score.
Turning to TAAGGGAA, the binding signal was -0.249 E-score.
In the case of CGGGAGGC it was -0.196 E-score; in that of TATGGGCA, 0.123 E-score; in that of CCTGAACG, 0.122 E-score.
On to CTAGTGTC, for which the binding signal came to 0.0995 E-score.
The value for AACCACCG was -0.059 E-score; that for CTGAAGGC was -0.311 E-score; that for ATATCCTC was 0.426 E-score.
The value for ATCGACCG was -0.0695 E-score.
As to AGCAGGAG, the binding signal is 0.0752 E-score.
The value for GATTGTGA was 0.0817 E-score; that for GTCGGTTA was -0.127 E-score; that for ACGTGTAG was -0.125 E-score.
Consider ACTAACCG, for which the binding signal is -0.119 E-score.
The value for GTGGCAAC was -0.189 E-score.
In the case of ACGACGTG it was -0.232 E-score; in that of TAGCTGAA, -0.115 E-score.
The value for CAAGATAC was 0.349 E-score.
For the sequence ACTGACAA, the binding signal is -0.133 E-score.
Turning to CAGATCTA, the binding signal is 0.21 E-score.
Consider CACTACAA, for which the binding signal was -0.0395 E-score.
As for ACACGGCG, the binding signal is -0.0684 E-score.
For TCCCTTAA, the binding signal is -0.00882 E-score.
For CCCCAACA, the binding signal worked out at 0.0319 E-score.
The value for CACTCGAA was -0.0663 E-score.
As to CGTCTACC, the binding signal turned out to be 0.0937 E-score.
In the case of CCGATAGC it was 0.329 E-score; in that of AGCCACTG, 0.00938 E-score; in that of GAGGTTGA, -0.142 E-score.
In the case of CGGACAAC, the binding signal was -0.0255 E-score.
Turning to TACCGGTA, the binding signal stood at 0.206 E-score.
Turning to AAGAATGC, the binding signal was -0.155 E-score.
As to CAACCCAC, the binding signal is -0.0843 E-score.
For the sequence CTTTTTAA, the binding signal was -0.202 E-score.
As for GGAGTCCA, the binding signal is -0.248 E-score.
With TCAGCACA, the binding signal was -0.11 E-score.
CTAACGTA: the binding signal turned out to be 0.0315 E-score.
Turning to ATAGTCGA, the binding signal is 0.0455 E-score.
For ACCCAGGA, the binding signal stood at 0.15 E-score.
For the sequence AAAAGGGG, the binding signal is -0.0983 E-score.
The value for CACCGGAC was 0.0612 E-score.
As to ATCGAGTA, the binding signal is 0.226 E-score.
The value for ACGTTTAC was -0.213 E-score; that for GACTTACC was 0.0442 E-score.
The value for TAGTACAA was -0.033 E-score; that for GTGCCCAC was -0.0546 E-score.
Regarding ACTTGACT, the binding signal was -0.229 E-score.
The value for AAATGCGT was -0.0206 E-score.
Consider GATCACCC, for which the binding signal amounted to 0.407 E-score.
With AAGATTTC, the binding signal is -0.198 E-score.
Regarding CACACCCG, the binding signal came out at 0.0478 E-score.
As for CAGTTAAG, the binding signal is -0.0403 E-score.
CGTACAAA: the binding signal was -0.151 E-score.
The value for CTGTGGCA was -0.295 E-score.
In the case of AACGGGTA it was 0.159 E-score.
In the case of CCACTTCG it was -0.0848 E-score.
Consider ACGTCCAG, for which the binding signal was -0.197 E-score.
Consider GCAATTGC, for which the binding signal is -0.0561 E-score.
On to AGCAATCC, for which the binding signal was determined as 0.081 E-score.
As for AGGTCTAC, the binding signal is -0.0295 E-score.
For the sequence CGTCATCA, the binding signal is 0.114 E-score.
With AGAATGCG, the binding signal is -0.114 E-score.
CAAGGAGA: the binding signal was -0.0267 E-score.
For the sequence GGGCTATA, the binding signal came out at 0.2 E-score.
On to AATTAGGG, for which the binding signal is -0.0389 E-score.
With AGGGCAAG, the binding signal was -0.00817 E-score.
Take AACATAGT: the binding signal was -0.104 E-score.
Regarding GATGCCAC, the binding signal was -0.185 E-score.
GTCTAGAC: the binding signal was determined as 0.0275 E-score.
Regarding AGCCGAGA, the binding signal was found to be 0.0266 E-score.
Turning to ACCGTCGC, the binding signal is -0.0519 E-score.
Turning to ATTAGACG, the binding signal was 0.132 E-score.
Consider CTACGCTC, for which the binding signal is -0.0764 E-score.
For the sequence GGGTGGAC, the binding signal is -0.211 E-score.
As for GCCGGCGA, the binding signal stood at 0.0376 E-score.
For the sequence CATTAAAG, the binding signal was -0.0889 E-score.
AATCCCGG: the binding signal was 0.0651 E-score.
For ACTGGTTA, the binding signal is 0.0425 E-score.
On to GGACGCGA, for which the binding signal was found to be 0.102 E-score.
The value for ACAGGGAT was 0.297 E-score.
In the case of AGGGCATC, the binding signal was -0.0524 E-score.
Turning to AGTGGATG, the binding signal is -0.14 E-score.
Regarding TAAGAAGA, the binding signal stood at 0.0544 E-score.
AGTGGACA: the binding signal was 0.0503 E-score.
In the case of CGCGCTAC, the binding signal is -0.195 E-score.
Consider ACTTAAAA, for which the binding signal was -0.226 E-score.
On to AGCTGAAA, for which the binding signal was -0.224 E-score.
ATAAGGAC: the binding signal is -0.023 E-score.
Consider AAGTTTTC, for which the binding signal is -0.253 E-score.
CCTTATCC: the binding signal is 0.137 E-score.
For the sequence ATCCGGTC, the binding signal worked out at 0.318 E-score.
The value for GCCGGCCA was -0.191 E-score; that for AATACAAA was 0.0403 E-score; that for AACCTCTG was -0.068 E-score.
As for GAGTACTA, the binding signal was found to be 0.0315 E-score.
ATCTATTG: the binding signal was found to be 0.175 E-score.
Take CCGCATAC: the binding signal turned out to be 0.168 E-score.
Regarding CAGCGCCA, the binding signal is -0.202 E-score.
Turning to AAGGCAGA, the binding signal was -0.116 E-score.
In the case of ACCTGAGG, the binding signal was -0.123 E-score.
The value for ACTAACGG was -0.102 E-score.
Turning to TCTAGGCA, the binding signal is -0.0567 E-score.
Take AGACCTTG: the binding signal was -0.169 E-score.
With TCAAATGA, the binding signal is -0.0115 E-score.
With CGAGTTAG, the binding signal is -0.0111 E-score.
The value for CGCTATTA was 0.1 E-score; that for GATAGCCA was 0.312 E-score; that for CGCGTCCC was -0.132 E-score.
The value for AGCCCTGA was -0.0409 E-score; that for ACCCCATA was 0.279 E-score.
Consider ATGATGAC, for which the binding signal was found to be 0.116 E-score.
The value for ATCATAAC was 0.281 E-score; that for CACGGAGG was 0.0245 E-score; that for AATGTAAG was -0.112 E-score.
In the case of GCATTAGC, the binding signal is -0.229 E-score.
As for TAAAATTA, the binding signal was -0.0945 E-score.
On to CGCGCCAA, for which the binding signal was -0.314 E-score.
In the case of CCAATTCA, the binding signal worked out at 0.0559 E-score.
With TAAAGTTA, the binding signal came out at 0.0663 E-score.
Consider TCCACGAA, for which the binding signal is -0.0824 E-score.
In the case of CATCCTTA, the binding signal was -0.0782 E-score.
As to AGTCAACA, the binding signal is -0.263 E-score.
On to AAACGCGT, for which the binding signal was -0.129 E-score.
In the case of CAATAACA it was -0.0178 E-score; in that of GGTCTCAA, 0.114 E-score.
Take CGCATCCA: the binding signal amounted to 0.0872 E-score.
For GAGTTTCA, the binding signal was -0.163 E-score.
In the case of ATCGTGAA, the binding signal was found to be 0.0522 E-score.
Take CGCTAAAG: the binding signal is -0.29 E-score.
In the case of AGTAGTGA, the binding signal was 0.0217 E-score.
For GAAGGATC, the binding signal was determined as 0.39 E-score.
On to GGCGAACC, for which the binding signal is 0.103 E-score.
In the case of CTTTAATA it was 0.121 E-score; in that of CTGGATCC, 0.351 E-score.
In the case of ACTATTAA it was -0.000405 E-score; in that of AAGGTGGC, -0.000965 E-score; in that of GGCCCTCA, -0.19 E-score.
As for AACGAATA, the binding signal was -0.0519 E-score.
Consider AAATAAAT, for which the binding signal is -0.114 E-score.
On to CATTGAAA, for which the binding signal is -0.17 E-score.
Turning to CATCAGCA, the binding signal is -0.0581 E-score.
With CGCGCTGC, the binding signal was -0.015 E-score.
As to AATTGGTG, the binding signal came to 0.071 E-score.
On to ACTCTGGA, for which the binding signal was determined as 0.112 E-score.
For TAGTTTCA, the binding signal is 0.0153 E-score.
As for ACGGGTCA, the binding signal was 0.0556 E-score.
For CATGACCC, the binding signal was found to be 0.105 E-score.
Take ATCCTGGC: the binding signal amounted to 0.155 E-score.
The value for GCAAGTGC was -0.292 E-score; that for GGCATTAA was 0.0176 E-score; that for AGGTGAGG was -0.145 E-score.
Regarding ACATGGAG, the binding signal was -0.00485 E-score.
CACGGACC: the binding signal was -0.0507 E-score.
GGAGTCGA: the binding signal came to 0.0399 E-score.
With GCTCTCAA, the binding signal was -0.104 E-score.
Take AAACGTCG: the binding signal is -0.189 E-score.
In the case of ATGGCTCG, the binding signal worked out at 0.0426 E-score.
For the sequence CAAGTCTC, the binding signal is -0.113 E-score.
As to AACGTGAG, the binding signal is -0.0665 E-score.
Take ACAGAACA: the binding signal worked out at 0.0893 E-score.
ACTTCGCC: the binding signal is -0.0688 E-score.
In the case of AAAACGCG it was -0.331 E-score; in that of ACGTGTAA, 0.0889 E-score.
